# Laboratory results: PubChem BioAssay AID1508621 (National Center for Advancing Translational Sciences (NCATS), 2021)
# Inconclusive results, whose numbers are uncertain, are shown with a selection of clear calls. Potencies beside an inconclusive call are fits to weak or partial responses and may not hold up. Activity calls are given as the source filed them. Calls follow the shape of the dose curve; as a rule, active = well fitted inhibition curve with a large enough effect; inconclusive = small, poorly fitted or top-dose-only effect; inactive = no such curve, though single readings can be large or run the other way.
# Assay: Confirmatory qHTS for Identification of Small Molecule Inhibitors of Huntingtin Promoter Activity; also: nearly all actives have a fitted effect of over 65% in size
# Conditions: HEK293 HTT promoter firefly luciferase reporter, 24 h; series mostly up to 57.5 µM
# In short: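 Activity normalized between vehicle control (0%) and zero RLU (-100%) from firefly luminescence (Dual-Glo). Compounds, up to 57.5 uM final, incubated 24 h at 37C on HEK293 reporter cells plated 24 h earlier.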
# Potency is read from the fitted curve at half-maximal effect; tags tell the direction and shape of the fitted curve.
row,SMILES,Potency
1,COc1ccc(OC)c(CCNC(=O)C(C)n2nc(C)c3c(C)n(-c4ccc(C)cc4)nc3c2=O)c1 (stereo not given),"inconclusive: 4.78 µM [inhibitor, partial curve]"
2,COc1ccc(CCNC(=O)c2ccc3c(c2)CCN3S(=O)(=O)c2ccc(C)cc2)cc1,"inconclusive: 26.9 µM [inhibitor, single point]"
3,COC(=O)[C@]12CCC(C)(C)C[C@@H]1[C@@H]1C(=O)C=C3[C@@]4(C)C=C(C#N)C(=O)C(C)(C)[C@@H]4CC[C@@]3(C)[C@]1(C)CC2,"inconclusive: 26.9 µM [inhibitor, single point]"
4,CCCCCNS(=O)(=O)c1ccc(N2CCCCS2(=O)=O)cc1,"inconclusive: 12 µM [inhibitor, partial curve]"
5,CSc1ccc(CCNc2ncnc3onc(C)c23)cc1,"inconclusive: 0.213 µM [inhibitor, full curve]"
6,CCN(Cc1ccccc1)C(=O)c1cc(-c2ccccc2)n[nH]1,inactive
7,CCCCN1CC(c2nc3ccccc3n2CCCCOc2ccccc2C)CC1=O (stereo not given),"inconclusive: 23.9 µM [inhibitor, single point]"
8,CN(CC(=O)Nc1ccc(OC(F)(F)F)cc1)S(=O)(=O)c1ccc2c(c1)CCC(=O)N2,"inconclusive: 16.9 µM [inhibitor, partial curve]"
9,COc1cccc(C(=O)Nc2nc(-c3nnn(-c4cccc(Cl)c4C)c3C)ns2)c1,"inconclusive: 23.9 µM [inhibitor, partial curve]"
10,COc1ccc(CCNC(=O)c2ccc3c(c2)CCN3S(=O)(=O)c2ccc(C)cc2)cc1OC,"inconclusive: 16.9 µM [inhibitor, partial curve]"
11,CCOC(=O)c1ccc(C#Cc2ccc3c(c2)C(C)(C)CCS3)nc1,inactive
12,COc1ccc(-c2noc(N3CCN(c4cccc(C)c4C)CC3)n2)cc1OC,"inconclusive: 26.9 µM [inhibitor, partial curve]"
13,CC(=O)N1CCCc2cc(S(=O)(=O)N(C)CC(=O)Nc3ccc(Cl)cc3C)ccc21,"inconclusive: 23.9 µM [inhibitor, partial curve]"
14,COc1ccc(-n2c(=O)[nH]c3cc(C(=O)NCCc4ccc(Cl)cc4)ccc3c2=O)cc1OC,"inconclusive: 15.1 µM [inhibitor, partial curve]"
15,CCCCN1CC(c2nc3ccccc3n2CCCCOc2ccc(C)c(C)c2)CC1=O (stereo not given),active: 19 µM
16,COc1ccc(OC)c(-c2nnc3ccc(-c4ccc(OC)c(O[C@@H]5CCOC5)c4)nn23)c1,"inconclusive: 12 µM [inhibitor, partial curve]"
17,COc1cccc([C@@H](C)NCCCc2ccccc2Cl)c1,"inconclusive: 21.3 µM [inhibitor, single point]"
18,COc1cc(Br)c(C2CC(=O)Nc3cc4c(cc32)OCCO4)cc1OC (stereo not given),"inconclusive: 19 µM [inhibitor, single point]"
19,CC(C)C1C(=O)Nc2ccc(S(=O)(=O)NCc3ccc(Cl)cc3)cc21 (stereo not given),"inconclusive: 21.3 µM [inhibitor, partial curve]"
20,COCCNc1nc(NCc2cccc(Cl)c2)c2cnn(C)c2n1,"inconclusive: 10.7 µM [inhibitor, partial curve]"

row,SMILES,Potency
1,COc1ccc(C)cc1NC(=O)CN1CCCN(S(=O)(=O)c2ccc(Br)cc2)CC1,"inconclusive: 30.1 µM [inhibitor, single point]"
2,COc1ccc(-c2noc(N3CCC(C(=O)N4CCN(c5cccc(OC)c5)CC4)CC3)n2)cc1,active: 1.35 µM
3,COc1ccc(CCNc2nc3c(c(=O)n(C)c(=O)n3C)n2Cc2ccc(F)cc2)cc1OC,"inconclusive: 5.36 µM [inhibitor, partial curve]"
4,Cc1ccc(C(=O)N2CCc3cc(CNC(=O)CSc4ccccc4)ccc32)cc1,"inconclusive: 33.8 µM [inhibitor, single point]"
5,Cc1c(NS(C)(=O)=O)cccc1-c1nc2ccccc2s1,inactive
6,CCOc1ccc(-n2ccnc2SCC(=O)Nc2ccc3c(c2)OCO3)cc1,"inconclusive: 21.3 µM [inhibitor, single point]"
7,CC(C)c1ccc(NC(=O)c2ccc(F)c(S(=O)(=O)N3CCc4ccccc4C3)c2)cc1,"inconclusive: 2.39 µM [inhibitor, full curve]"
8,CCn1c(CN2CCCCC2)nc2cc(NC(=O)c3ccc([N+](=O)[O-])cc3)ccc21,"inconclusive: 6.01 µM [inhibitor, partial curve]"
9,COc1ccc2[nH]cc(CCNC(=O)c3cnn(-c4ccc(C)cc4)c3C3CCN(C(=O)OC(C)(C)C)CC3)c2c1,"inconclusive: 26.9 µM [inhibitor, partial curve]"
10,CCN(Cc1ccccc1)C(=O)C1CCC(CNS(=O)(=O)c2ccc3c(c2)CCCC(=O)N3)CC1 (stereo not given),"inconclusive: 8.49 µM [inhibitor, partial curve, poor fit]"
11,COc1ccc(CNC(=O)c2ccc3c(c2)CCN3S(=O)(=O)c2ccc(Cl)cc2)cc1,"inconclusive: 26.9 µM [inhibitor, partial curve]"
12,Cc1ccc(NC(=O)c2ccc(F)c(S(=O)(=O)NCCc3ccccc3)c2)cc1F,"inconclusive: 15.1 µM [inhibitor, partial curve]"
13,CN(C)Cc1c(C(=O)NCCOc2ccc(C(=O)NO)cc2)oc2ccccc12,inactive
14,CCC(=O)N1CCc2cc(S(=O)(=O)NCCC(=O)Nc3ccc(CC)cc3)ccc21,inactive
15,O=C(NCc1cccs1)c1ccc(Cn2c(SCc3ccc(F)cc3)nc3cccnc32)cc1,inactive
16,Cc1cccc(-c2nc3scc(CCNS(=O)(=O)c4ccc(Oc5ccccc5)cc4)n3n2)c1,"inconclusive: 16.9 µM [inhibitor, partial curve]"
17,CCOc1ccc(-n2c(/C=C/c3cccc(F)c3)nc3cc(OC)c(OC)cc3c2=O)cc1,inactive
18,Cc1nc2sccn2c(=O)c1S(=O)(=O)Nc1ccc(N2CCOCC2)c(Cl)c1,"inconclusive: 23.9 µM [inhibitor, partial curve]"
19,COCCNc1nc2c(c(=O)n(C)c(=O)n2C)n1Cc1c(F)cccc1Cl,"inconclusive: 16.9 µM [inhibitor, partial curve]"
20,CCc1ccc(NC(=O)c2ccc(F)c(S(=O)(=O)N3CCN(c4cc(C)ccc4C)CC3)c2)cc1,"inconclusive: 6.01 µM [inhibitor, partial curve]"
